Assay results as given in PubChem BioAssay AID686979 (National Center for Advancing Translational Sciences (NCATS), 2013).
Several values for one entry are separate records, joined by “and”; a condition that tells them apart may be missing. Equal entries are not always repeated. In all, about 420,000 compounds went through this assay and about 50,000 (12%) were called active. The inconclusive results got no clear call from the source; some entries with a clear call stand among them for comparison. Calls follow the shape of the dose curve; as a rule, active = well fitted inhibition curve with a large enough effect; inconclusive = small, poorly fitted or top-dose-only effect; inactive = flat fitted curve, though single readings scatter. A potency beside an inconclusive call is a rough fit, not a confirmed value.

assay: qHTS for Inhibitors of human tyrosyl-DNA phosphodiesterase 1 (TDP1): qHTS in cells in presence of CPT; conditions: chicken DT40 Tdp1-/-;hTDP1 cells + 20 nM CPT, ATP luminescence, 48 h; activity change, negative = growth inhibition: at 46.2 µM (top of the series); also: nearly all actives have a fitted effect of over 55% in size
How it was run: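 Chicken DT40 Tdp1-/- cells stably complemented with human TDP1 were seeded at 400 cells/well in medium containing 20 nM camptothecin, exposed to pin-transferred compounds, and grown at 37 °C for at least 48 hr. Viability was read as ATP luminescence.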
% is scaled to controls: 0 for no effect and ±100 for the full control effect; potency is read from the fitted curve at half-maximal effect; tags tell the direction and shape of the fitted curve.

Compound | activity change, negative = growth inhibition | Potency
CCCC(=O)Nc1ccccc1-c1nnc(SCC)[nH]c1=O | inactive: -0.7% | –
COc1ccc(C2Oc3ccccc3N2C(C)=O)cc1 (configuration not stated) | inactive: -5.24% | –
COc1ccc(C2C(C#N)=C(N)Oc3cccc(O)c32)cc1 (configuration not stated) | inactive: -17.2% | –
CCCCn1c(N)c(N(Cc2ccccc2OC)C(=O)C(C)Oc2cccc(Cl)c2)c(=O)[nH]c1=O (configuration not stated) | – | inconclusive: 29.1 µM [inhibitor, single point]
CCCn1c(/C=C/c2ccccc2)nc2ccccc21 | – | inconclusive: 20.6 µM [inhibitor, single point] and inconclusive: 23.1 µM [inhibitor, single point]
Cc1ccc(C)c(OCCC(=O)N2CCN(S(=O)(=O)c3cc(F)ccc3F)CC2)c1 | – | inconclusive: 18.4 µM [inhibitor, single point]
Cc1cc(C(=O)N2CCc3c([nH]c4ccccc34)C2c2cccc(Cl)c2)nn1C (configuration not stated) | – | inconclusive: 29.1 µM [inhibitor, single point]
CCCNC(=O)c1cc(C2CCCN(C(=O)c3cc(F)ccc3C)C2)on1 (configuration not stated) | inconclusive: -37.6% [inhibitor] | –
Nc1nc(NCC(=O)O)nc(N2CCCCCC2)c1[N+](=O)[O-] | inactive: 5.37% | –
COc1ccc(Cn2c(=O)[nH]c3cc(C(=O)N4CCN(Cc5ccccc5)CC4)ccc3c2=O)cc1 | – | active: 16.4 µM
CCN(CC)CCn1cnc2c1c(=O)[nH]c(=O)n2Cc1ccccc1 | inactive: 5.18% | –
CCn1c2ccccc2c2cc(CN3CCN(Cc4ccc(OC)c(OC)c4)CC3)ccc21 | – | active: 18.4 µM
COc1ccc(N(C(=O)c2ccco2)C(C(=O)NC2CCCC2)c2ccc(OC)c(OC)c2)cc1 (configuration not stated) | inactive: 4.42% | –
CCC(C)c1ccccc1NC(=O)Cc1coc2cc3c(cc12)CCC3 (configuration not stated) | – | inconclusive: 20.6 µM [inhibitor, single point]
COc1ccc(NC(=O)c2cc(-c3ccccc3OC)on2)cc1 | – | active: 2.82 µM
COc1ccc2[nH]c3c(=O)n(CCCCC(=O)NCCC(C)C)c(=S)[nH]c3c2c1 | – | active: 14.6 µM
CCOC(=O)c1cnn(-c2ccc(OC)cc2)c1C1CCN(C(=O)OC(C)(C)C)CC1 | – | inconclusive: 25.9 µM [inhibitor, single point]
CCC(C(=O)NCCCN1CCCC1=O)n1c2ccccc2c2nc(=O)cc(C)n21 (configuration not stated) | inactive: 2.77% | –
O=C(c1ccc(F)cc1)C1CCN(C(=O)Nc2ccc(F)cc2)CC1 | – | inconclusive: 23.1 µM [inhibitor, single point]
Cc1cccc(NC(=O)c2ccc3c(Cl)c4c(nc3c2)CCCC4)n1 | – | inconclusive: 29.1 µM [inhibitor, single point]
CC1(C)Cc2cccc(OCC(=O)NCCOc3ccccc3)c2O1 | – | inconclusive: 29.1 µM [inhibitor, single point]
COc1ccc(CC(=O)NCCS(=O)(=O)N2CCN(c3ccccc3)CC2)cc1 | inactive: -21.6% | –
CCCn1c(SCC(=O)NNC(=O)c2ccccc2)nnc1-c1cccnc1 | inactive: -9.31% | –
COC(=O)c1ccc(NC(=O)CCc2c(C)nn(-c3ccc(N4CCCC4)nn3)c2C)cc1 | – | inconclusive: 29.1 µM [inhibitor, single point]

Compound | activity change, negative = growth inhibition | Potency
O=C(Nc1ccccc1C(=O)N1CCN(Cc2ccccc2)CC1)c1ccccn1 | inactive: -13.1% | –
Cc1ccc(NC(=O)CSc2ccccc2NC(=O)c2ccccc2Cl)cc1Cl | – | inconclusive: 29.1 µM [inhibitor, single point]
CCCCN(C(=O)c1cccc2c(=O)c(C)c(-c3ccccc3)oc12)c1ccccc1 | – | active: 16.4 µM
COc1ccccc1N1CCN(C(=O)CCc2c(C)nn(-c3ccc(N4CCCC4)nn3)c2C)CC1 | – | inconclusive: 25.9 µM [inhibitor, single point]
COc1ccc(CCCN2CCC(CN3CCNC(=O)C3=O)CC2)cc1OC | – | inconclusive: 29.1 µM [inhibitor, single point]
Cc1c(/C=N\NC(=O)C2COc3ccc(C(C)(C)C)cc3O2)c2ccccc2n1C (configuration not stated) | – | inconclusive: 23.1 µM [inhibitor, single point]
CN(C)/C=N/c1nc2c(ncn2C2CC(O)C(CO)O2)c(=O)[nH]1 (configuration not stated) | inactive: -13.5% | –
COc1ccc(/C=C/C(=O)Nc2cccc(N3CCOCC3)c2)cc1OC | – | inconclusive: 29.1 µM [inhibitor, single point]
COc1ccc(-n2c(CN3CCN(c4ccccn4)CC3)nc3ccc([N+](=O)[O-])cc3c2=O)c(OC)c1 | – | inconclusive: 16.4 µM [inhibitor, single point]
O=C(Nc1cccnc1)c1cc(-c2cccs2)on1 | – | inconclusive: 29.1 µM [inhibitor, single point]
O=C(NC(Cc1ccccc1)C(=O)O)/C(=C/c1ccc([N+](=O)[O-])cc1)NC(=O)c1ccccc1Br (configuration not stated) | inactive: 6.06% | –
Cc1c(NC(=O)COC(=O)c2ccc[nH]c2=O)c(=O)n(-c2ccccc2)n1C | inactive: 2.67% | –
CCC(=O)NS(=O)(=O)c1ccc(-c2c(-c3ccccc3)noc2C)cc1 | inactive: -1.09% | –
Cc1ccc(-c2nc(SCC(=O)NCC3CCCO3)c(-c3ccc(Cl)cc3)[nH]2)cc1 (configuration not stated) | – | inconclusive: 23.1 µM [inhibitor, single point]
CC(Oc1ccccc1)C(=O)Nc1cccc(NC(=O)c2ccco2)c1 (configuration not stated) | – | inconclusive: 23.1 µM [inhibitor, single point]
COc1cccc(NC(=O)CN(C)CC(=O)c2c(N)n(Cc3ccccc3)c(=O)n(C)c2=O)c1 | inactive: -2.74% | –
COc1cccc(-c2cc3c(c4c2ccn4C)C2CCC3C2)c1 (configuration not stated) | – | inconclusive: 9.2 µM [inhibitor, partial curve]
CC(C)CNC(=O)C1CCN(c2ccc(S(=O)(=O)N3CCOCC3)cc2[N+](=O)[O-])CC1 | inactive: -26.6% | –
COc1ccc(OC)c(S(=O)(=O)N2CCCC(N3CCN(c4ccccc4)CC3)C2)c1 (configuration not stated) | – | inconclusive: 11.6 µM [inhibitor, partial curve]
Cc1ccc2ccccc2c1CSc1nc(N)nc2c1ncn2CC(C)C | – | inconclusive: 29.1 µM [inhibitor, single point]
C=CCn1c(SCC(=O)N2CCCC2=O)nc2sc(CC)cc2c1=O | – | inconclusive: 25.9 µM [inhibitor, single point]
CC1CCN(CCNC(=O)CCS(=O)(=O)c2ccc(Br)cc2)CC1 | inactive: 1.96% | –
CN(C)c1ccc(C=O)cc1Cl | inactive: 2.08% | –
COc1ccc(Cl)cc1N(CC(=O)NCc1ccccn1)S(=O)(=O)c1ccc(C)cc1 | – | inconclusive: 25.9 µM [inhibitor, single point]

Compound | activity change, negative = growth inhibition | Potency
Cc1cccc(NC(=O)CSc2nc3c(oc4ccccc43)c(=O)n2-c2ccccc2)c1 | – | inconclusive: 29.1 µM [inhibitor, single point]
Cc1noc(/C=C/N(C)C)c1S(=O)(=O)N1CCCC(C(=O)NCc2ccc(Cl)cc2)C1 (configuration not stated) | – | inconclusive: 32.6 µM [inhibitor, single point]
CC/C(=C\c1ccc(Cl)cc1)c1ccncc1 | – | inconclusive: 16.4 µM [inhibitor, single point]
Cc1cc(=O)oc(C)c1C(=O)NC12CC3CC(CC(C3)C1)C2 | inactive: -3.86% | –
C/C=C(/C)C(=O)O[C@H]1[C@@H](O)c2c(ccc3ccc(=O)oc23)OC1(C)C | – | inconclusive: 14.6 µM [inhibitor, partial curve]
N#CCc1ccc(Oc2ncccn2)cc1 | – | inconclusive: 16.4 µM [inhibitor, single point]
Cn1c(=O)[nH]c(=O)c2c1nc(N1CCNCC1)n2Cc1ccccc1Cl | inactive: -3.67% | –
COc1ccc(OC)c(CN2CCN(C(=O)c3ccc(S(=O)(=O)Nc4ccccc4F)cc3)CC2)c1 | – | inconclusive: 20.6 µM [inhibitor, single point]
O=C(c1cc2cc(F)ccc2[nH]1)N1CCN(c2ccc(F)cc2)CC1 | inactive: -15% | –
CSc1nc2sc3c(c2c(=O)n1-c1ccc(C)c(Cl)c1)CCN(C(C)=O)C3 | – | inconclusive: 18.4 µM [inhibitor, partial curve]
CC1Cc2nc(SCC(=O)NCC3CCCO3)n(Cc3ccccc3)c(=O)c2S1 (configuration not stated) | inactive: 1.3% | –
COc1ccc(N=C2SC(CC(=O)Nc3ccccc3)C(=O)N2CCN2CCOCC2)cc1 (configuration not stated) | inactive: 0.257% | –
C[C@@H]1CN([C@@H](C)CO)C(=O)CCCn2cc(nn2)CO[C@H]1CN(C)S(=O)(=O)c1ccc2ccccc2c1 | – | inconclusive: 16.4 µM [inhibitor, partial curve]
CC(=O)c1cccc(NC(=O)N2CCCC2C(=O)NC2CCCCC2)c1 (configuration not stated) | inactive: 1.41% | –
CCc1ccc(C(=O)NNC(=O)c2ccc(OCC(=O)N3CCOCC3)c(OC)c2)cc1 | inactive: 2.8% | –
Fc1ccccc1C1c2[nH]c3ccccc3c2CCN1CCCn1cccn1 (configuration not stated) | – | inconclusive: 25.9 µM [inhibitor, single point]
CC(C)(CO)CNC(=O)c1ccc2nc(Cc3cccc(Cl)c3)oc2c1 | – | inconclusive: 29.1 µM [inhibitor, single point]
CC(C)(C)NC(=O)C1CCN(c2ccc(S(=O)(=O)N3CCOCC3)cc2Cl)CC1 | inactive: -10.8% | –
Cc1cc(Sc2nnc(N)s2)c2ccccc2n1 | – | active: 1.84 µM
COc1cccc(-c2nc(C=O)cs2)c1 | – | inconclusive: 25.9 µM [inhibitor, single point]
O=S(=O)(Nc1cccc(S(=O)(=O)N2CCCC2)c1)c1ccc(Br)cc1 | inactive: -16.9% | –
COc1cc(C(=O)N(Cc2ccc(C(C)C)cc2)C2CCS(=O)(=O)C2)cc(OC)c1OC (configuration not stated) | inactive: -0.678% | –
Cc1cc(-c2onc3ccc(Cl)cc23)ccc1O | – | inconclusive: 25.9 µM [inhibitor, partial curve, poor fit]
CCCCOc1ccc(C(C)NC(=O)CCS(=O)(=O)Cc2ccccc2F)cc1 (configuration not stated) | inconclusive: -32.6% [inhibitor] | –
